# The BET-seq Pho4 binding data (Le et al. 2018)
# Some of the results follow. The energies were worked out here from pooled read counts, against the library average; single values are noisy.
# Biological target: T1, Pho4 (S. cerevisiae) (UniProt P07270)
# T1 sequence: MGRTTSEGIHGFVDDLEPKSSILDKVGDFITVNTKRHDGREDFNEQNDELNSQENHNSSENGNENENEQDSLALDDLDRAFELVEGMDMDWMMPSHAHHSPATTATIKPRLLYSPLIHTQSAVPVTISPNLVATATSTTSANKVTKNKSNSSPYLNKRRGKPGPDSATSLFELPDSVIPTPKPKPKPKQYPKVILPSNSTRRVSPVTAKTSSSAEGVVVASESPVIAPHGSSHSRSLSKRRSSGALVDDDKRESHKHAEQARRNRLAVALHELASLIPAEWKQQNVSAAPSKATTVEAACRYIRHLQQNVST
# Experiment: relative binding free energy (BET-seq); higher = weaker binding
# Settings: reference: library average
row,Sequence,relative binding free energy [kcal/mol]
1,TGAGGCACGTGCGATG,-0.06
2,GTATTCACGTGACGGG,0.37
3,CGAGGCACGTGGCAGG,-0.19
4,TATGTCACGTGTTTGC,0.07
5,TCTCGCACGTGGGTTG,-0.11
6,TGTGGCACGTGCTGAA,-0.09
7,CAGGGCACGTGTGATG,-0.07
8,GTGGGCACGTGTAAGT,0.02
9,CTTGTCACGTGGCGTT,0.06
10,TTGTGCACGTGGGACG,-0.07
11,GGATGCACGTGTGTTT,0.1
12,TTGCACACGTGTAAGT,0.13
13,ATGTTCACGTGCTGGT,0.19
14,AATTTCACGTGTGAGG,0.35
15,GAATACACGTGTATGG,0.09
16,CCTAGCACGTGTGTTT,0.1
17,CGGGTCACGTGAGTCT,0.39
18,AATTCCACGTGGTGTA,-0.01
19,CATCGCACGTGTTGTG,-0.11
20,GATTGCACGTGGCGCG,0
21,TAGGTCACGTGACGTT,0.15

row,Sequence,relative binding free energy [kcal/mol]
1,ATTTGCACGTGGTAGG,-0.09
2,ACATTCACGTGTTTGT,0.12
3,GATGTCACGTGATGTA,0.21
4,GGGAACACGTGACGTG,0.18
5,GTAGGCACGTGAGCGT,0.07
6,TCTAGCACGTGGGGTC,-0.22
7,GTTTCCACGTGTGATT,0.1
8,TGGCGCACGTGTGTAG,-0.04
9,ATGGGCACGTGTCTTA,-0.17
10,GTACTCACGTGAGGTG,0.25
11,CATCGCACGTGGGTGT,-0.24
12,TAAGACACGTGTGGCA,0.15
13,GTGGACACGTGTTACG,0.1
14,TTTGACACGTGTGGTA,0.12
15,AGTATCACGTGTATGC,0.09
16,ATCGTCACGTGGATAT,0.21
17,TTCGACACGTGTTGAT,0.03
18,TCATGCACGTGGGGAA,-0.06
19,GGCCTCACGTGAGGGG,0.24
20,TGGAGCACGTGTAAGG,0.09
21,CTAATCACGTGGTGGT,0.23

row,Sequence,relative binding free energy [kcal/mol]
1,CTGGTCACGTGTAAGA,0.18
2,TATGGCACGTGGCGGT,-0.08
3,TGGGCCACGTGTATTT,0.15
4,TTTATCACGTGCTAAT,0.11
5,GAGGCCACGTGATGTG,0.12
6,GAGGACACGTGAGATG,0.31
7,TGCTGCACGTGGATTG,0.04
8,CATAGCACGTGTTAGT,-0.07
9,TTGATCACGTGTCGGG,0.23
10,CATGTCACGTGAGGTT,0.17
11,TTATACACGTGGGATT,-0.02
12,AAATTCACGTGGGTCA,0.12
13,TGCGGCACGTGAGGAT,0.08
14,GAAAGCACGTGGAGTG,-0.15
15,TTAGTCACGTGATTTT,0.07
16,ATGCACACGTGATGGA,0.21
17,TAAGACACGTGGTAGG,-0.14
18,TGAGACACGTGTTTCG,0.04
19,TTTCGCACGTGTGCAG,0.02
20,ATTTCCACGTGGGTTA,-0.1
21,TGGGACACGTGGTGAT,-0.04
